Experimental data from patent publication US6995157B2, “Substituted 4,5-dihydro-1,2,4-triazin-3-ones, 1,2,4-triazin-3-ones, and their use as fungicides and insecticides” (priority 2000, dated 2006).

Tests used:
[1] = tested on: Southern Armyworm Spodoptera eridania
Procedure: (§1) A test solution containing 600 parts per million (ppm) was prepared by dissolving the appropriate weight of compound in solvent (acetone:methanol, 1:1), adding surfactant (Triton X-155 and Triton B-1956, approximately 1 oz/100 gal) and then tap water to give an acetone methanol: water system of 5:5:90. Lower concentrations of 150 and 38 ppm were made by serially diluting the 600 ppm test solution while maintaining constant solvent, water and surfactant levels.
(§2) The enclosed spraying chamber consisted of a single spray nozzle mounted on a boom moving at a fixed speed and distance over stationary targets. The vertical distance from the nozzle tip to the targets was 5.5 inches. The boom speed was 100 inches per 5 seconds. The boom passed only once over the targets.
Individual fully expanded primary lima bean (Phaseolus limensis) leaves were placed bottom side up on moistened pieces of filter paper in Petri dishes. The leaves were sprayed with the test solutions and allowed to dry. The dishes were infested with 10 third instar larvae of the southern armyworm, covered with the lids, and held at 27° C. Armyworm control was rated by visual inspection after 96 hours. LC50 values are calculated from the data.

[2] = tested on: Tobacco Budworm Heliothis virenscens
Procedure: as §1, §2
Individual cotton (Gossypium hirsutum) leaves were placed bottom side up on moistened pieces of filter paper in Petri dishes. The leaves were sprayed with the test solutions and allowed to dry. The dishes were infested with 5 neonate larvae of the tobacco budworm, covered with the lids, and held at 27° C. Percent mortality was determined 4 days post-treatment. LC50 values are calculated from the data.

[3] = 10 third instar larvae on sprayed lima bean leaves, 27° C., rated after 96 hours, test solutions 600, 150 and 38 ppm, LC50 calculated from the data
[4] = 5 neonate larvae on sprayed cotton leaves, 27° C., mortality 4 days post-treatment, test solutions 600, 150 and 38 ppm, LC50 calculated from the data

Structure (SMILES) | LC50 AW ([1]; in vivo) [ppm] | LC50 TBW ([2]; in vivo) [ppm] | LC50 AW [1, 3] [ppm] | LC50 TBW [2, 4] [ppm]
CN1CC(c2ccc(Cl)cc2)=NN(c2ccc(Cl)cc2)C1=O [Compound 6, 2,6-bis-(4-chlorophenyl)-4-methyl-4,5-dihydro-1,2,4-triazin-3-one] | 150 | >600 |  | 
CN1CC(c2ccc(Cl)cc2)=NN(C#N)C1=O [Compound 27] |  |  | 45 | >600
CCC#CCN1N=C(c2ccc(Cl)cc2)CN(C)C1=O [Compound 21] |  |  | >600 | 31
O=C1NCC(c2ccc(Cl)cc2)=NN1CC(F)(F)F [Compound 19] |  |  | 150 | 150
CN1CC(c2ccc(Cl)cc2)=NN(C)C1=O [Compound 22] |  |  | 500 | 360
COC1NC(=O)N(C)N=C1c1ccc(Cl)cc1 (racemic) [Compound 12] |  |  | 150 | 150
C#CCN1N=C(c2ccc(Cl)cc2)CN(C)C1=O [Compound 7, 2-propargyl-6-(4-chlorophenyl)-4-methyl-4,5-dihydro-1,2,4-triazin-3-one] | 150 | 150 |  | 
CN1CC(c2ccc(Cl)cc2)=NN(Cc2ccccc2)C1=O [Compound 23] |  |  | 600 | >600
CN1CC(c2ccc(Cl)cc2)=NN(CC#N)C1=O [Compound 24] |  |  | 50 | >600
Cn1nc(-c2ccc(Cl)cc2)cnc1=O [Compound 11] |  |  | 150 | 150
CN1CC(c2ccc(Cl)cc2)=NN(Cc2ccc(Cl)cc2)C1=O [Compound 30] |  |  | 500 | 740
CCCN1N=C(c2cccc(Cl)c2)CN(C)C1=O [Compound 25] |  |  | 500 | >600
COC1NC(=O)N(CC(F)(F)F)N=C1c1ccc(Cl)cc1 (racemic) [Compound 20] |  |  | 150 | 150
CN1CC(c2ccc(Cl)cc2)=NN(CSc2ccccc2)C1=O [Compound 26] |  |  | 500 | >600

Like-named read-outs stand apart in the source and are kept apart here.
